In patent US20260265359A1 (Hoffmann-La Roche, published 2026):

T1: recombinant human VEGF-B167 (human, UniProt P49765-2 22-188)
T1 sequence (looked up): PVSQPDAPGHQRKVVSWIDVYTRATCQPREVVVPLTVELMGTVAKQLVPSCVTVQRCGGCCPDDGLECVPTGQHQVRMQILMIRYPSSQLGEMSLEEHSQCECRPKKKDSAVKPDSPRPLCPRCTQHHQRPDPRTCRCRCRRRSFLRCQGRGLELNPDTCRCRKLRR

T2: recombinant human VEGF-A165 (human, UniProt P15692-4 27-191)
T2 sequence (looked up): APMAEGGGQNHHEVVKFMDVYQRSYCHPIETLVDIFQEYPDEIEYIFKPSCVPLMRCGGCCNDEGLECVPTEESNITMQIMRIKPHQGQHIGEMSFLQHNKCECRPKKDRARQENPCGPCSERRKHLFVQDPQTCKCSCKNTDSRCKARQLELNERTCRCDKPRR

T3: recombinant human Ang-2 (human, UniProt O15123 19-496, limits assumed)
T3 construct: also called Angiopoietin-2; hAng-2
T3 sequence (looked up): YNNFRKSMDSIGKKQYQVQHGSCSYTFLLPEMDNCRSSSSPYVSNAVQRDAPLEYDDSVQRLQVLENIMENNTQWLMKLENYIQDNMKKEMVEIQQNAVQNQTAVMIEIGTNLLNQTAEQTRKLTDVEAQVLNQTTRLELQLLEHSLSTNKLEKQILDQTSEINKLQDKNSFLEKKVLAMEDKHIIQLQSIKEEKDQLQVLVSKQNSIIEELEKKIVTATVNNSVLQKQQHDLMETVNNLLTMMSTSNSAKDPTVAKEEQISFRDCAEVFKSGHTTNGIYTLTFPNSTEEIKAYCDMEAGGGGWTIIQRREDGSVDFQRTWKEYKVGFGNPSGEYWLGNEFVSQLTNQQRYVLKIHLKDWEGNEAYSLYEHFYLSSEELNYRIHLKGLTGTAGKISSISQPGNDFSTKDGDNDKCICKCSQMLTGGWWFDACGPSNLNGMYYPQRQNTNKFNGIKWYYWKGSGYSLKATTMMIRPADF

T4: recombinant human PIGF (human, UniProt P49763-2 19-149, limits assumed)
T4 construct: also called PlGF; placental growth factor
T4 sequence (looked up): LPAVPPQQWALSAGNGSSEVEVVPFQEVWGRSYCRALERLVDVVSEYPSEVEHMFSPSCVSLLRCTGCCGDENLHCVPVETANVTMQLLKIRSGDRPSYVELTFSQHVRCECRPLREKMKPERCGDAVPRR

T5: recombinant human IL-6R (human, UniProt P08887 20-365, limits assumed)
T5 construct: Recombinant protein used in ELISA and as SPR analyte; also called hIL-6R
T5 sequence (looked up): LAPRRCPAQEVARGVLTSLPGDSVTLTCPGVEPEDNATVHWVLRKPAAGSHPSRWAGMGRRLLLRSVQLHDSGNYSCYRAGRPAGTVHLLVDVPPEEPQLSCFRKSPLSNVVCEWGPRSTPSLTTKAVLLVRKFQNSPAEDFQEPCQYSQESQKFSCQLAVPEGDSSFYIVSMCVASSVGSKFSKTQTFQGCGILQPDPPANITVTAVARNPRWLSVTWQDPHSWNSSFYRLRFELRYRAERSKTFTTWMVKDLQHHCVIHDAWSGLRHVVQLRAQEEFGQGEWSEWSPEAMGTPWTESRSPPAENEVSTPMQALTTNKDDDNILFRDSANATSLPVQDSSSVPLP


Key:
[1] = target: T1, recombinant human VEGF-B167; experiment: SPR Biacore, 25 C; test antibody captured by anti-human IgG (Fc) on CM5 chip, target protein as analyte; 1:1 model
Description: (§1) SPR Biacore assay was performed at 25° C. with HBS-EP+ as a running buffer. The assay was performed by immobilization of the anti-human IgG (Fc) antibody onto the CM5 sensor chip surface and determined the level of ligand immobilization. […] Test antibodies were injected over the surface of Series S Sensor Chip CM5 as Capture. The analytes (target proteins) were diluted with running buffer into different concentrations and injected over the sensor surface as the association phase for affinity and kinetics measurements. The 1:1 binding model was used to measure the binding affinity and/or kinetics.

[2] = target: T2, recombinant human VEGF-A165; experiment: as above
Description: as §1

recombinant human Ang-2 [3] = target: T3, recombinant human Ang-2; experiment: as above
Description: as §1

recombinant human PIGF [4] = target: T4, recombinant human PIGF; experiment: as above
Description: as §1

recombinant human IL-6R [5] = target: T5, recombinant human IL-6R; experiment: as above
Description: as §1

[6] = target: T2, recombinant human VEGF-A165; experiment: cell-based or functional assay
[7] = target: T2, recombinant human VEGF-A165; experiment: ELISA on plate-coated recombinant human VEGF-A165; anti-human IgG1-Fc-HRP, OD450
Description: (§2) After non-specific blocking using 1% BSA at 25° C. for 1 hour, a series of dilutions of test antibodies (“Abs”) were added into the coated wells and incubated at 25° C. for 1 hour. The bound Abs were detected using a secondary Ab (goat anti-human IgG1-Fc) conjugated with HRP followed by OD₄₅₀ reading.

recombinant human IL-6R [8] = target: T5, recombinant human IL-6R; experiment: ELISA on plate-coated recombinant human IL-6R; anti-human IgG1-Fc-HRP, OD450
Description: as §2
The same ELISA procedure was performed with recombinant human IL-6R. […] Vobarilizumab is a single domain antibody against IL-6R. B781402 and B781405 are bispecific fusion antibodies that inhibit VEGF-A, B, PIGF and IL-6R.

recombinant human Ang-2 [9] = target: T3, recombinant human Ang-2; experiment: ELISA on plate-coated recombinant human Ang-2; anti-human IgG1-Fc-HRP, OD450
Description: as §2

recombinant human PIGF [10] = target: T4, recombinant human PIGF; experiment: ELISA on plate-coated recombinant human PIGF; anti-human IgG1-Fc-HRP, OD450
Description: as §2

rabbit Ang-2 = rabbit Ang-2 (rabbit); experiment: ELISA, cross species binding

| Kd [1] | koff [1] | kon [1] | Kd [2] | koff [2] | kon [2] | Kd (recombinant human Ang-2 [3]) | koff (recombinant human Ang-2 [3]) | kon (recombinant human Ang-2 [3]) | Kd (recombinant human PIGF [4]) | koff (recombinant human PIGF [4]) | kon (recombinant human PIGF [4]) | Kd (recombinant human IL-6R [5]) | koff (recombinant human IL-6R [5]) | kon (recombinant human IL-6R [5]) | IC50, inhibition of VEGF-A165-stimulated VEGFR-2 NF-AT luciferase reporter (HEK-293), luminescence [6] | EC50 [7] | EC50 (recombinant human IL-6R [8]) | EC50 (recombinant human Ang-2 [9]) | EC50 (recombinant human PIGF [10]) | Binder | also measured |
| --- | --- | --- | --- | --- | --- | --- | --- | --- | --- | --- | --- | --- | --- | --- | --- | --- | --- | --- | --- | --- | --- |
| 1.05 nM | 0.000441 s⁻¹ | 421000 M⁻¹ s⁻¹ | 0.0132 nM | 0.000424 s⁻¹ | 3.22e+07 M⁻¹ s⁻¹ | 0.307 nM | 0.000366 s⁻¹ | 1.19e+06 M⁻¹ s⁻¹ | 0.42 nM | 0.00841 s⁻¹ | 2e+07 M⁻¹ s⁻¹ | 0.551 nM | 0.000776 s⁻¹ | 1.41e+06 M⁻¹ s⁻¹ | 0.566 nM | 0.057 nM | 0.131 nM | 0.32 nM | 0.04 nM | EB-105BI-7CA (other, VEGFR-1-D2-VEGFR-2-D3 at the N-terminus of the tocilizumab light chain; Made in CHO cells; also called B21138001) heavy: QVQLQESGPGLVRPSQTLSLTCTVSGYSITSDHAWSWVRQPPGRGLEWIGYISYSGITTYNPSLKSRVTMLRDTSKNQFSLRLSSVTAADTAVYYCARSLARTTAMDYWGQGSLVTVSSASTKGPSVFPLAPSSKSTSGGTAALGCLVKDYFPEPVTVSWNSGALTSGVHTFPAVLQSSGLYSLSSVVTVPSSSLGTQTYICNVNHKPSNTKVDKKV[human IgG1 Fc skipped]GGSGGGGSGGGGSAQTNFMPMDDLEQRLYEQFILQQGLE light: SDTGRPFVEMYSEIPEIIHMTEGRELVIPCRVTSPNITVTLKKFPLDTLIPDGKRIIWDSRKGFIISNATYKEIGLLTCEATVNGHLYKTNYLTHRQTNTIIDVVLSPSHGIELSVGEKLVLNCTARTELNVGIDFNWEYPSSKHQHKKLVNRDLKTQSGSEMKKFLSTLTIDGVTRSDQGLYTCAASSGLMTKKNSTFVRVHEKDIQMTQSPSSLSASVGDRVTITCRASQDISSYLNWYQQKPGKAPKLLIYYTSRLHSGVPSRFSGSGSGTDFTFTISSLQPEDIATYYCQQGNTLPYTFGQGTKVEIKRTVAAPSVFIFPPSDEQLKSGTASVVCLLNNFYPREAKVQWKVDNALQSGNSQESVTEQDSKDSTYSLSSTLTLSKADYEKHKVYACEVTHQGLSSPVTKSFNRGEC |  |
| 0.938 nM | 0.000542 s⁻¹ | 578000 M⁻¹ s⁻¹ | 0.025 nM | 0.000679 s⁻¹ | 2.71e+07 M⁻¹ s⁻¹ | 0.323 nM | 0.000284 s⁻¹ | 878000 M⁻¹ s⁻¹ | 0.4 nM | 0.00631 s⁻¹ | 1.58e+07 M⁻¹ s⁻¹ | 0.474 nM | 0.000698 s⁻¹ | 1.47e+06 M⁻¹ s⁻¹ | 0.532 nM | 0.066 nM | 0.113 nM | 0.189 nM | 0.034 nM | EB-105BI-7CB (other, Trispecific antibody fusion protein, first embodiment; lead molecule; also called B21138002) heavy: QVQLQESGPGLVRPSQTLSLTCTVSGYSITSDHAWSWVRQPPGRGLEWIGYISYSGITTYNPSLKSRVTMLRDTSKNQFSLRLSSVTAADTAVYYCARSLARTTAMDYWGQGSLVTVSSASTKGPSVFPLAPSSKSTSGGTAALGCLVKDYFPEPVTVSWNSGALTSGVHTFPAVLQSSGLYSLSSVVTVPSSSLGTQTYICNVNHKPSNTKVDKKV[human IgG1 Fc skipped]GGSGGGGSAQTNFMPMDDLEQRLYEQFILQQGLE light: SDTGRPFVEMYSEIPEIIHMTEGRELVIPCRVTSPNITVTLKKFPLDTLIPDGKRIIWDSRKGFIISNATYKEIGLLTCEATVNGHLYKTNYLTHRQTNTIIDVVLSPSHGIELSVGEKLVLNCTARTELNVGIDFNWEYPSSKHQHKKLVNRDLKTQSGSEMKKFLSTLTIDGVTRSDQGLYTCAASSGLMTKKNSTFVRVHEKDIQMTQSPSSLSASVGDRVTITCRASQDISSYLNWYQQKPGKAPKLLIYYTSRLHSGVPSRFSGSGSGTDFTFTISSLQPEDIATYYCQQGNTLPYTFGQGTKVEIKRTVAAPSVFIFPPSDEQLKSGTASVVCLLNNFYPREAKVQWKVDNALQSGNSQESVTEQDSKDSTYSLSSTLTLSKADYEKHKVYACEVTHQGLSSPVTKSFNRGEC | binding affinity measured by ELISA (rabbit Ang-2): 0.173 nM |
